# From article PMC4336329 (PLoS ONE, 2015)
# The campaign covered roughly 310,000 compounds. About 14,000 (4.5%) showed an effect of 50% or more. Effects have a minus sign here. This is one part of the list.
# Target: human ether-à-go-go-related gene (hERG) potassium channel (human, UniProt Q12809)
# Test: primary screen, population patch clamp on CHO cells stably expressing hERG
# 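Also: peak tail current of the secondary pulse compared with the same well before compound.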
# human ether-à-go-go-related gene (hERG) potassium channel, sequence (Q12809 whole entry, looked up): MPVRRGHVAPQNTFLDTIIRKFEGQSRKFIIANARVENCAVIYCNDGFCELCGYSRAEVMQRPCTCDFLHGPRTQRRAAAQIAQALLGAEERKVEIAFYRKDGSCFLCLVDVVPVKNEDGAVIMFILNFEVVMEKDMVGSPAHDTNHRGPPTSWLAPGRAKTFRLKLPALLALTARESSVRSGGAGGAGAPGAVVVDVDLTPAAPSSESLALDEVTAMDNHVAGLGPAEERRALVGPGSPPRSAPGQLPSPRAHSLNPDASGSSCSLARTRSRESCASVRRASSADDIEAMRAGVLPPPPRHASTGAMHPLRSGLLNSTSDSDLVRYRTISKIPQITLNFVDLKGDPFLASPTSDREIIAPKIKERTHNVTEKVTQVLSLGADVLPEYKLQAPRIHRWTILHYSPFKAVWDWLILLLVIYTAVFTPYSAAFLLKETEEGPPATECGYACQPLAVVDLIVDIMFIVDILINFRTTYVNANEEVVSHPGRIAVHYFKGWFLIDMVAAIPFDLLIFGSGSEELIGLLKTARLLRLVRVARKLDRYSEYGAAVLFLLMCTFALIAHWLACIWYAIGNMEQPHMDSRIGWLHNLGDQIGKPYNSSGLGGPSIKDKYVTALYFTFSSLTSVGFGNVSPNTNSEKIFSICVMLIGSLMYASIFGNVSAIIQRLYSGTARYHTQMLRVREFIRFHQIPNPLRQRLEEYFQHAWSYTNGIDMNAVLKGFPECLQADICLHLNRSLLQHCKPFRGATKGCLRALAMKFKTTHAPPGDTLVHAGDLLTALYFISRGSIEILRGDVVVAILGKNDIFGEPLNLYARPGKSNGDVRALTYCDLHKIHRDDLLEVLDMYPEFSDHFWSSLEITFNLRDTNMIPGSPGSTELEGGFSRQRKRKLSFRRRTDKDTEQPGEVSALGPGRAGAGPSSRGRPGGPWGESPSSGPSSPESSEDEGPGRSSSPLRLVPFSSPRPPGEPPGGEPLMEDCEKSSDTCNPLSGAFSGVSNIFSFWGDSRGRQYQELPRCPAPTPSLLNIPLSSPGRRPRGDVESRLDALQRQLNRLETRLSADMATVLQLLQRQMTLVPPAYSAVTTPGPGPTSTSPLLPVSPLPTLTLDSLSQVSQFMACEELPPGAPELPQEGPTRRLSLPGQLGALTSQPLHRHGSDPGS
row,Structure (SMILES),"hERG current change (%, negative = inhibition) at 10uM [%]"
1,COc1ccc2nc(Cl)c(C#N)cc2c1,0.182
2,O=C(CCS(=O)(=O)c1cc2c(cc1Cl)NC(=O)CO2)NCc1ccc(F)cc1,-31.8
3,COCc1cc(C)n(CC(=O)N/N=C/c2ccc(-c3ccc(Cl)c(C(=O)O)c3)o2)c(=O)c1C#N,8.19
4,Cc1ccccc1C1c2[nH]c3ccccc3c2C[C@H]2C(=O)N(c3ccccc3C(=O)NCCN3CCOCC3)C(=O)N12 (stereo partly drawn),-1.87
5,CC(C(=O)NCc1ccccn1)N1C(=O)c2ccccc2C1=O (stereo not drawn),-6.39
6,Cc1ccc(NC(=O)NCCN2CCN(C(=O)Nc3ccc(C)cc3)CC2)cc1,-36.4
7,Cc1cc2c(c(=O)n1CCN(C)C)C(c1ccncc1)C(C#N)=C(N)O2 (stereo not drawn),19.6
8,COc1ccc(N2C(=O)CC(Nc3ccc(C(=O)O)cc3)C2=O)cc1OC (stereo not drawn),7.54
9,O=c1ccc(Oc2nc(N3CCCCC3)nc(N3CCCCC3)n2)n[nH]1,-4.44
10,COc1cc2ncc(S(=O)(=O)c3ccccc3)c(N3CCC4(CC3)OCCO4)c2cc1OC,-80.8
11,CCN1C(=O)/C(=c2\s/c(=C3\Sc4ccccc4N3C)c(=O)n2C)N(C)C1=S,15.7
12,Cc1cc(-c2ccccc2)nc2oc(C(=O)NN)c(N)c12,19.6
13,O=C(N/N=C/c1ccc(F)cc1)c1cc[n+]([O-])cc1,16.8
14,O=S(=O)(c1ccccc1)N1CCN=C1SCc1ccc(Cl)c(Cl)c1,-2.01
15,O=C(NCc1nnc(SCC(=O)N2CCN(c3ccccc3)CC2)o1)c1ccccc1,14
16,CS(=O)(=O)N1CCC(C(=O)Nc2cccc(F)c2)CC1,15.2
17,O=C(CN(C(=O)CCC(=O)Nc1ccccn1)C1CCCC1)NCc1ccc(F)cc1,-22.5
18,C=CCNS(=O)(=O)c1cc(S(=O)(=O)NCC=C)c(OC)cc1OC,18.8
19,CCOc1ccc(Cc2noc3c2C(=O)CC(C)(C)C3)cc1OCC,-14.5
20,CCSc1ncc(Cl)c(C(=O)Nc2ccccc2F)n1,20.9
21,CCC(=O)OCC(=O)Nc1ccc([N+](=O)[O-])cc1OC,9.29
22,COc1ccc(-c2nn(CC(=O)Nc3ccc(Cl)c(Cl)c3)c(=O)c3ccccc23)cc1,6.59

row,Structure (SMILES),"hERG current change (%, negative = inhibition) at 10uM [%]"
1,O=C(NCc1cccnc1)C1CC(c2ccc(Cl)c(Cl)c2)=NO1 (stereo not drawn),-23.6
2,COc1ccc(OCc2nnc(SCC(=O)O)n2N)cc1,23
3,O=C(NCCc1cccs1)C1CC(c2cccc([N+](=O)[O-])c2)=NO1 (stereo not drawn),-23.5
4,CCCCn1c(N)c(N(CCOC)C(=O)CCNC(=O)c2ccccc2Cl)c(=O)[nH]c1=O,13.4
5,CNc1nc2c(-c3ccc(Cl)cc3)nnn2c2ccccc12,15.7
6,O=C(COc1ccccc1Cl)Nc1cnn(Cc2ccccc2)c1,7.88
7,Cc1cccc([C@@H]2C[C@H]3CN(Cc4cccc(Cl)c4)C(=O)[C@]34CCCN24)n1,-55
8,Cc1ccc(OC(F)F)c(N2C(=O)C3C4CCC(O4)C3C2=O)c1 (stereo not drawn),17.8
9,CN(C)c1ccc(CCN2CCOCC2)cc1,21.9
10,O=C(O)c1ccc(Oc2ccccc2)o1,23.2
11,CN(C)C(=O)CCSc1nnc(-c2ccco2)o1,8.84
12,Cc1ccc(Nc2c([N+](=O)[O-])c(=O)n(C)c3ccccc23)cc1,-36.9
13,NC(=O)CC(NC(=O)Cc1cccc2ccccc12)c1ccc(N2CCN(c3ccccn3)CC2)c([N+](=O)[O-])c1 (stereo not drawn),16.5
14,CCOC(=O)C1=C(C)NC(=O)C(C#N)C1c1ccco1 (stereo not drawn),9.08
15,O=C(O)C1CCN(C(=O)c2cccc3ccccc23)CC1,16.2
16,CC1CC(C)CN(C(=O)COC(=O)C2CCN(S(=O)(=O)c3c(Cl)cccc3Cl)CC2)C1 (stereo not drawn),-31.5
17,CCN(/N=C/C=C/c1ccccc1)c1cc(=O)n(C)c(=O)[nH]1,12.2
18,CCCN1C(=O)/C(=N\OCC(=O)Nc2ccc(C(C)C)cc2)c2ccccc21,-11.4
19,Cc1cc(C)c(Cn2c(=O)n(CCCC(=O)NCc3ccco3)c(=O)c3sccc32)c(C)c1,6.15
20,O=C(COC(=O)c1ccc(O)cc1)Nc1ccccc1[N+](=O)[O-],-10.6
21,CCC(C)NC(=O)c1cc2cc3ccc(OC)cc3nc2o1 (stereo not drawn),11.9
22,C[C@@]1(CO)[C@H](O)CC[C@@]2(C)[C@H]1CC[C@H]1C[C@@H]3C[C@@]12CC[C@]3(O)CO,6.59

row,Structure (SMILES),"hERG current change (%, negative = inhibition) at 10uM [%]"
1,COc1ccc(CN(C)c2ccc(S(=O)(=O)N3CCN(C)CC3)cc2[N+](=O)[O-])cc1OC,-9.79
2,Cc1ccc(C(=O)N/N=C/c2ccc(S(=O)(=O)[O-])o2)c(Cl)c1.[Na+],16.6
3,Cc1ccsc1/C=N/NC(=O)C1CC(=O)N(c2ccc(F)cc2)C1 (stereo not drawn),-15.1
4,CCOC(=O)c1csc(NC(=O)CSc2nnnn2-c2ccc(OC)c(OC)c2)n1,2.29
5,CCO[C@@H]1OC(C(=O)N2CCOCC2)=C[C@H](C2CCCCC2)[C@H]1CCCO,14.5
6,Cc1ccccc1C(=O)Nc1nnc(-c2ccc(F)cc2)o1,-4.52
7,O=c1[nH]c(=O)n(-c2cc(Br)c(O)c(Br)c2)cc1Br,7.74
8,CC(=O)c1ccc(N2CCN(C(=O)/C=C/c3ccc(S(=O)(=O)N4CCOCC4)cc3)CC2)cc1,-30.3
9,Cc1cccc(-c2nnc3sc(-c4ccccc4)nn23)c1,-12.1
10,CC(=O)OCC12COC3c4ccccc4OC(C)(CC1C)C3C2C (stereo not drawn),-23.9
11,CCc1noc(C)c1C(=O)NNC(=O)COc1cc(C)ccc1C,-21.2
12,CSCCC(NS(=O)(=O)c1ccc(C)cc1)C(=O)NCC(C)(C)N1CCOCC1 (stereo not drawn),-11.8
13,COc1cc(N)c(Cl)cc1C(=O)OCC(=O)N1CCCCCC1,5.5
14,CNC(=O)NC(=O)CSc1nc2sccc2c(=O)n1-c1ccccc1,11
15,COc1ccc(C)cc1NC(=O)C(CCS(C)(=O)=O)NC(C)=O (stereo not drawn),2.33
16,COc1ccc2c(c1)[nH]c1c(=O)n(Cc3ccccn3)cnc12,4.28
17,Cc1sc2ncnc(N[C@@H](CCC(=O)O)C(=O)O)c2c1C,10.1
18,COC(=O)c1sc(NC(=O)c2c(-c3ccccc3)noc2C)nc1C,20.6
19,COc1ccc(Br)cc1S(=O)(=O)N1CCOCC1,7.54
20,CCN(CC)C(=O)c1ccc(NC(=O)Cn2nc(C)c3ccccc3c2=O)cc1,-10.3
21,C/C(=N\NC(=S)Nc1ccc(C(C)C)cc1)c1ccc2c(c1)OCO2,23.1
22,Cc1ccc(S(=O)(=O)NCCc2cc3ccc(C)c(C)c3[nH]c2=O)cc1,10

row,Structure (SMILES),"hERG current change (%, negative = inhibition) at 10uM [%]"
1,CC(=O)n1cc([C@H]2C=C(C(=O)O)O[C@@H](OCCCCO)C2)c2ccccc21,0.0595
2,CCCOc1ccc(CNC(=S)N/N=C/c2ccc([N+](=O)[O-])cc2)cc1,0.669
3,CCc1ccccc1OCCOc1ccc(C)cc1OC,10.1
4,Cc1ccc(-n2nc(C)c3c(C)c(CCC(=O)NCCCOC(C)C)c(C)nc32)cc1,-53.1
5,O=C(CCc1nc2ccccc2c(=O)[nH]1)Nc1cc(C(F)(F)F)ccc1N1CCCC1,3.53
6,Cc1cccc(OCCC(=O)NCC(=O)Nc2cccc(C)c2C)c1,8.48
7,CC12CCC(=O)N1C(C(=O)NCc1ccc(Cl)cc1Cl)CS2 (stereo not drawn),-0.564
8,Cc1cccc(C(=O)NCC(=O)OCC(=O)NC2CCCCCCC2)c1,9.01
9,CCC(=O)N1c2ccccc2-c2nnc(SC)nc2OC1c1ccc(OC)c(OC)c1 (stereo not drawn),9.41
10,COc1ccc(CC(=O)N2CCc3ccccc32)cc1,1.76
11,FC(F)(F)c1cc(-c2ccccc2)nc(-n2cncn2)n1,-17.9
12,COC(=O)c1ccc(CSc2nncn2N)cc1,17.6
13,Cc1cc(C)n(-c2ccc(C(=O)OCC(=O)Nc3ccc(S(=O)(=O)N4CCOCC4)cc3)cc2)n1,6.51
14,COC(=O)CCn1nc(-c2ccc(Cl)cc2)c2ccccc2c1=O,-11.7
15,Cc1cc(-c2nc3ccccc3[nH]2)ccc1N,23.1
16,COc1ccc(C(=O)NCCCNC(=O)c2ccccn2)cc1,10.8
17,COc1ccc(OCC(=O)N/N=C/C=C/c2ccccc2)cc1,-16.3
18,Cc1cc(NC(=O)Cn2nnc3sc4c(c3c2=O)CCC(C(C)(C)C)C4)no1 (stereo not drawn),-1.9
19,CC(C)C(C)(C#N)NC(=O)CSc1nc2scc(-c3ccccc3)c2c(=O)[nH]1 (stereo not drawn),7.84
20,Nn1c(SCC(=O)Nc2ccc3c(c2)OCO3)nnc1-c1cccc(Cl)c1,-3.9
21,O=C(CCc1nnc2ccc(NCc3ccccc3Cl)nn12)NC1CCCC1,13
